In all, about 18,000 sequences were measured (“TetR repression strength (sort-seq, GFP reporter)”: median about 0.23, highest 2% from about 0.68 on). The list shows a part of the results.

Consider 102 sequences from a collection of fitness landscapes (doi:10.1038/s41467-024-54723-y).

The assay deals with TetR (class B, Tn10) (UniProt P04483). Briefly: TetR repression strength (sort-seq, GFP reporter) (relative to tetO2 = 1); higher = stronger repression. The note with it: E. coli. The method, boiled down: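 Repression strength is the top bin index plus one minus the read-weighted mean bin, relative to the unaltered operator's value. A low-copy library in E. coli SIG10-MAX randomized eight operator positions between a constitutive promoter and sfGFP, with TetR expressed constitutively; cells grew 5 h at 37 °C in LB with 50 µg/mL chloramphenicol and 10^6 were FACS-sorted into 13 bins that were each Illumina-sequenced. Three independent transformations were averaged, keeping only members with ≥30 reads in all replicates and CV ≤0.5.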
UniProt P04483, sequence (P04483 whole entry): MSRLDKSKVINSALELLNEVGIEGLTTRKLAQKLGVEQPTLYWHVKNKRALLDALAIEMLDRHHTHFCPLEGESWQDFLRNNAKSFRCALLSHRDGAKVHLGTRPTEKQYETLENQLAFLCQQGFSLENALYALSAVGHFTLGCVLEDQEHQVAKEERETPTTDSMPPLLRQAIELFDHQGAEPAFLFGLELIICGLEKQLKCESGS
As to TCCCTATGAGTTCCCGAGA, the TetR repression strength was 0.289.

On to TCCCTGACAGTGTGAGAGA, for which the TetR repression strength is 0.297. In turn, TCCCATTCAGTGGGTGAGA came in with a TetR repression strength of 0.278.

Turning to TCCCAACTAGTGAAAGAGA, the TetR repression strength turned out to be 0.386.

In turn, TCCCATGAAGTTGCTGAGA displayed a TetR repression strength of 0.107.

As to TCCCTTTAAGTCCAAGAGA, the TetR repression strength was determined as 0.221. TCCCAACCAGTCAACGAGA: the TetR repression strength stood at 0.251.

TCCCCGTCAGTGCGGGAGA showed a TetR repression strength of 0.0283.

Consider TCCCGTAGAGTTGGGGAGA, for which the TetR repression strength came to 0.214. In turn, TCCCTTTGAGTTATCGAGA gave a TetR repression strength of 0.384. Regarding TCCCATTGAGTTTTCGAGA, the TetR repression strength was determined as 0.275. TCCCACAAAGTGCGGGAGA showed a TetR repression strength of 0.453. For the sequence TCCCGGGCAGTGAAGGAGA, the TetR repression strength was found to be 0.251. As to TCCCCAAGAGTGGGAGAGA, the TetR repression strength was found to be 0.265.

TCCCTTCAAGTCGGCGAGA had a TetR repression strength of 0.361. For TCCCACACAGTCGGAGAGA, the TetR repression strength came out at 0.333.

On to TCCCGAATAGTAAATGAGA, for which the TetR repression strength was found to be 0.247.

TCCCGATAAGTGGTCGAGA returned a TetR repression strength of 0.18. TCCCCTAGAGTGTGGGAGA yielded a TetR repression strength of 0.00482.

As to TCCCAGTAAGTTGCAGAGA, the TetR repression strength was determined as 0.235. TCCCAGGAAGTCGAGGAGA showed a TetR repression strength of 0.116. In the case of TCCCCGTAAGTAAACGAGA it was 0.197; in that of TCCCGAACAGTCAATGAGA, 0.347; in that of TCCCCGGCAGTCAGCGAGA, 0.269. In the case of TCCCGTGCAGTAGGAGAGA it was 0.157; in that of TCCCAACTAGTAGTTGAGA, 0.358. Then TCCCGGGAAGTGTAAGAGA, with 0.0587; and TCCCTAAGAGTTCGGGAGA, with 0.65. For the sequence TCCCGGCTAGTTCGCGAGA, the TetR repression strength amounted to 0.375. Sequence TCCCCGCTAGTTGAAGAGA showed a TetR repression strength of 0.321. As to TCCCAACTAGTTCATGAGA, the TetR repression strength stood at 0.267. TCCCGCCGAGTGAGTGAGA had a TetR repression strength of 0.312. With TCCCGGACAGTAGTTGAGA, the TetR repression strength stood at 0.129. Then TCCCAGGGAGTGTTAGAGA, with 0.263; and TCCCACTGAGTGGTCGAGA, with 0.438; and TCCCGGGTAGTGTCCGAGA, with 0.209.

TCCCTATAAGTTTATGAGA gave a TetR repression strength of 0.294. Sequence TCCCGACTAGTGAGAGAGA yielded a TetR repression strength of 0.502. As to TCCCTCCCAGTTAGTGAGA, the TetR repression strength was found to be 0.266. Regarding TCCCCACGAGTTCAGGAGA, the TetR repression strength is 0.271. On to TCCCGCATAGTGAGTGAGA, for which the TetR repression strength was 0.148. Consider TCCCTATTAGTGGGTGAGA, for which the TetR repression strength was 0.364. In the case of TCCCGATGAGTGTATGAGA it was 0.28. Take TCCCAAGTAGTCGGCGAGA: the TetR repression strength was found to be 0.346. Then TCCCTCTAAGTAGCGGAGA, with 0.0363; and TCCCATTCAGTTGTGGAGA, with 0.217; and TCCCAAATAGTCGTAGAGA, with 0.563. With TCCCCGCTAGTGAAGGAGA, the TetR repression strength stood at 0.591. Take TCCCGATCAGTATAGGAGA: the TetR repression strength came to 0.173. In turn, TCCCTAGGAGTGTGAGAGA returned a TetR repression strength of 0.146. On to TCCCCTGAAGTCGGAGAGA, for which the TetR repression strength was determined as 0.237. TCCCATTAAGTGCATGAGA returned a TetR repression strength of 0.106. Regarding TCCCAAAGAGTTATCGAGA, the TetR repression strength turned out to be 0.15.

TCCCGTTGAGTCGATGAGA: the TetR repression strength stood at 0.335. Regarding TCCCTATTAGTACGGGAGA, the TetR repression strength was 0.226.

With TCCCAATAAGTGACAGAGA, the TetR repression strength was determined as 0.451. Regarding TCCCAGATAGTATGAGAGA, the TetR repression strength amounted to 0.291. TCCCGGATAGTTTTGGAGA gave a TetR repression strength of 0.21. In turn, TCCCAGGAAGTTAGGGAGA gave a TetR repression strength of 0.245. For TCCCCGTGAGTATTCGAGA, the TetR repression strength was found to be 0.179. The sequence TCCCGAGCAGTCCATGAGA registered a TetR repression strength of 0.277. Regarding TCCCGTCAAGTAGTGGAGA, the TetR repression strength was found to be 0.12.

TCCCTATGAGTCCGGGAGA displayed a TetR repression strength of 0.0385. TCCCCGGCAGTCGGCGAGA showed a TetR repression strength of 0.173. Then TCCCGAAAAGTCTTAGAGA, with 0.312; and TCCCTGTTAGTTGTAGAGA, with 0.271.

TCCCTGATAGTGGCAGAGA registered a TetR repression strength of 0.261.

Sequence TCCCGGCAAGTGAGGGAGA displayed a TetR repression strength of 0.17. Regarding TCCCAAAAAGTTGTAGAGA, the TetR repression strength amounted to 0.458. Sequence TCCCCCCGAGTTGCCGAGA showed a TetR repression strength of 0.311.

TCCCTATCAGTAAGGGAGA gave a TetR repression strength of 0.379. As to TCCCCGCGAGTAGGGGAGA, the TetR repression strength was 0.245.

In the case of TCCCTTCTAGTGTGCGAGA, the TetR repression strength stood at 0.355. TCCCATGGAGTAATTGAGA: the TetR repression strength was 0.155. Consider TCCCGCTTAGTTTCGGAGA, for which the TetR repression strength turned out to be 0.238. TCCCTAAAAGTATGAGAGA displayed a TetR repression strength of 0.18. For the sequence TCCCGCAAAGTGGGGGAGA, the TetR repression strength was 0.065. TCCCGTGCAGTGATAGAGA had a TetR repression strength of 0.647. Sequence TCCCGCGTAGTTGTGGAGA registered a TetR repression strength of 0.128.

In turn, TCCCGATTAGTGTAAGAGA came in with a TetR repression strength of 0.295. The sequence TCCCGTGTAGTTGGAGAGA showed a TetR repression strength of 0.191. Regarding TCCCGTAAAGTAGGGGAGA, the TetR repression strength was found to be 0.219. For TCCCATGTAGTCAAGGAGA, the TetR repression strength was 0.325. TCCCGCGGAGTTGAAGAGA came in with a TetR repression strength of 0.287.

TCCCGGTCAGTATATGAGA: the TetR repression strength turned out to be 0.275. In the case of TCCCGCCAAGTCCCGGAGA it was 1.1.

In turn, TCCCGTAGAGTCAGGGAGA gave a TetR repression strength of 0.142. Take TCCCTTGAAGTGCTAGAGA: the TetR repression strength was 0.276. Sequence TCCCAGTGAGTACAGGAGA gave a TetR repression strength of 0.186. For the sequence TCCCGTTAAGTGGTCGAGA, the TetR repression strength amounted to 0.269. Sequence TCCCGAGAAGTTCGGGAGA came in with a TetR repression strength of 0.256. TCCCAATGAGTTGGGGAGA yielded a TetR repression strength of 0.229.

In the case of TCCCCGTCAGTGTGAGAGA, the TetR repression strength turned out to be 0.212. Regarding TCCCGGTAAGTGTATGAGA, the TetR repression strength was found to be 0.124.

As for TCCCGATCAGTACGTGAGA, the TetR repression strength is 0.333. For the sequence TCCCAATAAGTTCCTGAGA, the TetR repression strength was determined as 0.155.

TCCCGGCTAGTCTTCGAGA had a TetR repression strength of 0.303. In the case of TCCCCACCAGTACTAGAGA it was 0.346; in that of TCCCATTTAGTGATAGAGA, 0.555; in that of TCCCTGGTAGTGGCCGAGA, 0.246. TCCCCGCTAGTCCATGAGA gave a TetR repression strength of 0.202. In turn, TCCCCAGGAGTATGGGAGA gave a TetR repression strength of 0.0668.
